According to the supplement of paper PMC11417369:
The other results are listed elsewhere or left out.

Test system: PF3D7_0420300 AP2 domain 1 (GST-tagged)
Test: gcPBM binding intensity (ln(normalized median fluorescence intensity)); higher = stronger DNA binding
Procedure, shortened: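 The highest Masliner-normalised natural-log median intensity across replicate spots of either probe orientation is reported as binding intensity. GST-tagged P. falciparum DNA-binding domains expressed in E. coli were applied for 1 h to an Agilent 4 × 180k array of primer-extended double-stranded 36-bp intergenic genomic probes plus negative controls, and bound protein was detected with Alexa488 anti-GST antibody and scanned at 488 nm.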

Sequence | gcPBM binding intensity (ln)
ATCTTTTATATATTCACACATAAAATTATACAGATA [CACACA_site5277] | 9.26
GACAAATGAAAAGATTGTACATGTATTTGAAGATTA [XGTACX_site6775] | 9.15
TACACAAAAATTTATACACACACATATATAATATAT [CACACA_site7931] | 9.98
TGATTATATATAAATGTATGCATGTCTATTATGCTA [TGCATGCA_site543] | 9.03
TCTTTTATATTTTTTTGTACACAAGAATAAAGAAAA [XGTACX_site3394] | 8.86
TATATATATATATATTGTACACATACATGTAGTTTT [XGTACX_site4848] | 9.46
TATATATATATATAGGTGCAATATTGAAAAAATATC [GTGCAC_site9535] | 9.42
AAAGTAATATATAATACATGCGTAAATATTTATGTA [TGCATGCA_site254] | 9.31
TCTTCTTTAAAAGAGGTGCACTATATAATGTGATTA [GTGCAC_site9431] | 8.97
TAATTATACTTATTTTGTACGCAATATTTAAAATAA [XGTACX_site8516] | 9.02
ATTTCTCTATCGTAATGTACAAAAAAAAGGAAAAAA [XGTACX_site1323] | 9
ACATATAAATGATATGTACACACATTTATATATATA [CACACA_site9152] | 9.45
TTTTTAACGTATAAGGTGCACTGTATATGGTACTCA | 9.1
TTTTGGATGAACAGTACATGCAAAAACAAACTTGTA [TGCATGCA_site16] | 9.03
TGCTTCTTTTAAAAACATGTTTGTATTCATTTTATA [CACACA_negctrl_site1627] | 9.43
ACAAAAAGTTACATACGTACGTAAAATTGTAATAAA [XGTACX_site2358] | 9.27
ATTATATTATATATATGTACATATATATATCATAAT [XGTACX_site1] | 9.13
ATAATACCATTAATTTGTACATATATATTATATATA [XGTACX_site4345] | 9.31
AAATGTGAAAAAGAGTGTACCCGACTTGAAATTAAG [XGTACX_site8621] | 9.43
AGTAGAATATCCCCTACACACCCAAGTAATTTACAA [CACACA_site6708] | 9.7
AATTAAAAGTGAAGAGTGCATAGAATTTTTTACTTT [GTGCAC_site9973] | 9.27
TTTAATTTTCAATGGCGTACATATAAAATATTATAT [XGTACX_site1672] | 9.01
GATGAATAATATGTATGTACATATGCATTATGATGT [XGTACX_site7655] | 9.42
ATATGCACTTTTTGCACACGTATGAATAACAAAATA [CACACA_site1810] | 9.19
ACATATAGATAAATATGTACATATATATATATATAT [XGTACX_site1806] | 9.22
